According to PubChem BioAssay AID504832 (National Center for Advancing Translational Sciences (NCATS), 2011):
The whole screen tested about 310,000 compounds, of which about 18,000 (5.8%) were called active. This list was built around the results that the source calls inconclusive (neither active nor inactive); the mix of calls is not that of the screen. Calls follow the shape of the dose curve; as a rule, active = well fitted inhibition curve with a large enough effect; inconclusive = small, poorly fitted or top-dose-only effect, or another doubt; inactive = no such curve, though single readings can be large or run the other way. No potency is given beside an inconclusive call; the fits are too rough.

Assay: Primary qHTS for delayed death inhibitors of the malarial parasite plastid, 48 hour incubation
Conditions: P. falciparum luciferase growth in erythrocytes; series mostly up to 28.7 µM; activity change, negative = inhibition: at the top concentration
How it was run: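 Read-out is firefly luciferase luminescence from an integrated reporter in P. falciparum, so falling signal marks reduced parasite growth. Infected erythrocytes were at 2% hematocrit and 0.1% parasitemia (final) in Albumax-supplemented RPMI 1640.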
% is scaled to controls: 0 for no effect and ±100 for the full control effect; potency is read from the fitted curve at half-maximal effect; tags tell the direction and shape of the fitted curve.

SMILES	Potency	activity change, negative = inhibition
COc1cccc(/C=C/C(=O)OCC(=O)NC(=O)NC2CCCCC2)c1	inconclusive [inhibitor, partial curve]	
O=C(COC(=O)c1ccccc1Br)Nc1nnc(-c2ccccc2)o1	inconclusive [inhibitor, partial curve, poor fit]	
CCCn1c(C(O)c2ccc3c(c2)OCO3)nc2ccccc21 (stereo not given)	inconclusive [inhibitor, single point]	
Cc1cc(NC(=O)CCC(=O)N(C(C(=O)NC(C)(C)C)c2ccccc2Cl)C(C)(C)C)no1 (stereo not given)	inconclusive [inhibitor, partial curve]	
C/C(=C\C(=O)c1ccc(C)cc1)Nc1ccc(N2CCOCC2)cc1	inconclusive [inhibitor, partial curve, poor fit]	
CCCOC(=O)c1ccc(-c2ccc(C=O)o2)cc1		inactive: 227%
COc1ccc2ccccc2c1CNC(=O)CC1C(=O)NCCN1CC(C)C (stereo not given)	inconclusive [inhibitor, partial curve, poor fit]	
CN(C(=O)COC(=O)C1=COCCO1)c1c(N)n(Cc2ccccc2)c(=O)[nH]c1=O		inactive: -15.2%
CCOC(=O)N1CCC(N2Cc3cccc(C(=O)N4CCN(c5cccc(C)c5C)CC4)c3C2=O)CC1	active: 10.4 µM	
NS(=O)(=O)c1ccc(N/N=C/c2cn(-c3ccccc3)nc2-c2ccccc2)c([N+](=O)[O-])c1	active: 4.15 µM	
COc1cc(CNCCCN2CCOCC2)cc(Br)c1OCc1ccc(Cl)cc1	inconclusive [inhibitor, single point]	
Cn1cc(C(=O)Nc2ccc(C#N)cc2)c2ccccc2c1=O		inactive: 8.21%
COc1ccc(C2c3ccc4ccccc4c3Oc3ncn(CCO)c(=N)c32)cc1 (stereo not given)	inconclusive [inhibitor, single point]	
COc1cccc(COC(=O)C2CCN(S(=O)(=O)c3ccc(Cl)cc3)CC2)c1OC	inconclusive [inhibitor, single point]	
O=C(O)c1ccc(C2SCC(=O)N2Cc2ccccc2)cc1 (stereo not given)		inactive: -3.9%
COc1cc(NC(=O)COC(=O)CCc2cc(OC)c(OC)c(OC)c2)cc(OC)c1		inactive: 6.9%
N#Cc1sc2nc(N3CCCCC3)c3c(c2c1N)CCCC3	active: 5.22 µM	
Cc1ccc(CC(=O)Nc2ccc(S(=O)(=O)N3CCOCC3)cc2)cc1C	active: 9.28 µM	
CC1CN(S(=O)(=O)c2cccc(C(=O)Nc3ccccc3N3CCOCC3)c2)CC(C)O1 (stereo not given)	active: 13.1 µM	
COc1cccc(NC(=O)Cn2nnc(C(=O)NCCc3ccccc3)c2N)c1	inconclusive [inhibitor, partial curve, poor fit]	
COc1ccccc1N1CCN(C(=O)C2CCC(CNS(=O)(=O)c3ccc(NC(C)=O)cc3)CC2)CC1 (stereo not given)	inconclusive [inhibitor, partial curve]	
CCC(C)(C)NC(=O)C(c1ccncc1)N(Cc1ccc(C)cc1)C(=O)c1csnn1 (stereo not given)		inactive: -29.8%
O=C(CN1CCN(S(=O)(=O)c2ccc(Cl)s2)CC1)N1CCOCC1		inactive: 38.7%
O=C(COc1ccc(Cl)cc1Cl)NCCCn1ccnc1	active: 6.57 µM	

SMILES	Potency	activity change, negative = inhibition
CCOC(=O)/C(=C\Nc1ccc(OC(F)(F)F)cc1)Sc1ncc(C(F)(F)F)cc1Cl	active: 2.08 µM	
CCOC(=O)CSc1nnc2c3ccccc3n(C)c2n1		inactive: 12.3%
O=C(COc1ccc(S(=O)(=O)N2CCCC2)cc1)Nc1ccc(F)cc1	inconclusive [inhibitor, single point]	
COc1ccc2cc(C#N)c(Cl)nc2c1	inconclusive [inhibitor, partial curve, poor fit]	
O=C(NCC(=O)N(c1cccnc1)C(C(=O)NC1CCCCC1)c1ccccc1F)c1ccco1 (stereo not given)		inactive: -6.62%
Cc1cc(NC(=O)CN2C(=O)/C(=C/c3cccc(Br)c3)SC2=S)no1		inactive: 6.16%
COc1ccc(C(=O)OCC(=O)NC2CC2)cc1OC		inactive: -11.5%
CC(C(=O)NC(=O)NC1CCCCC1)N1CCN(C(c2ccccc2)c2ccccc2)CC1 (stereo not given)	inconclusive [inhibitor, partial curve, poor fit]	
Cc1ccc(OCC(=O)O/N=C(\N)Cc2ccc([N+](=O)[O-])cc2)cc1C	inconclusive [inhibitor, full curve]	
COc1cc(/C=N\Nc2nc(-c3cccs3)c(NC(C)=O)s2)ccc1O	inconclusive [inhibitor, single point]	
Cc1ccc(-n2ncc3c2CC(C)(C)CC3NC(=O)CCN2CCCO2)cc1 (stereo not given)	inconclusive [inhibitor, partial curve, poor fit]	
O=C(NC(Cc1ccccc1)C(=O)O)/C(=C\c1ccc(F)cc1)NC(=O)c1ccccc1 (stereo not given)		inactive: 22.9%
COc1ccccc1N1CCN(C(=O)c2ccc3nc(-c4ccco4)c(-c4ccco4)nc3c2)CC1	inconclusive [inhibitor, single point]	
COc1ccc(C(=O)OC(C)C(=O)Nc2cc(C(F)(F)F)ccc2Cl)c(OC)c1OC (stereo not given)		inactive: -27.6%
CC12CN(Cc3ccccc3)CC(C)(CN(Cc3ccccc3)C1)C2=NO	inconclusive [inhibitor, single point]	
COc1ccccc1NC(=O)N1CCN(c2cccc(C(F)(F)F)c2)CC1		inactive: -24.8%
COc1cc(C(=O)Nc2ccc(N3CCCS3(=O)=O)cc2)c([N+](=O)[O-])cc1OC		inactive: 0.842%
CC(=O)/C=C(\C)N=Nc1c(O)[nH]c2ccccc12		inactive: 16.1%
C=CCN=C1SC(C)C(=O)N1S(=O)(=O)c1ccccc1 (stereo not given)		inactive: 6.08%
COc1cc(NC(=O)C/C(C)=N/NC(=O)C(=O)NC2CCCCC2)c(OC)cc1Cl	inconclusive [inhibitor, partial curve, poor fit]	
O=C(Nc1cccc(S(=O)(=O)N2CCCCC2)c1)c1ccccn1		inactive: 2.11%
Cc1cccn2c(=O)nc(SCC(=O)Nc3cccc4ccccc34)nc12	inconclusive [inhibitor, single point]	
COC(=O)C(C)Sc1nc2c(cnn2-c2ccc(Cl)cc2)c(=O)[nH]1 (stereo not given)	inconclusive [inhibitor, full curve, poor fit]	
COc1ccc(-n2cccc2/C=C/[N+](=O)[O-])cc1	inconclusive [inhibitor, single point]	

SMILES	Potency	activity change, negative = inhibition
O=C1N=C(N2CCCCC2)S/C1=C\c1ccncc1	inconclusive [inhibitor, partial curve, poor fit]	
COC(=O)C1=C(C)N(Cc2ccccc2)C(=NCCc2cccnc2)N[C@H]1c1ccc(Br)cc1	active: 7.38 µM	
O=C(CNC(=O)C1CCCCC1)Nc1cc(Cl)ccc1Cl	inconclusive [inhibitor, single point]	
CCOC(=O)c1ccc(NC2=CC(=O)C(=O)c3ccccc32)cc1	active: 5.86 µM	
CCNC(=O)c1ccc(C23CC4CC(CC(C4)C2)C3)o1	inconclusive [inhibitor, single point]	
Cn1c(-c2cccc([N+](=O)[O-])c2)cnc1NCc1ccc(C#N)cc1	inconclusive [inhibitor, partial curve, poor fit]	
S=C(NCc1ccncc1)Nc1ccc(Cl)c(Cl)c1	inconclusive [inhibitor, single point]	
CCOC(=O)c1ccc(NC(=O)CC2S/C(=N/N=C3/NC(=O)CS3)NC2=O)cc1 (stereo not given)	inconclusive [inhibitor, partial curve, poor fit]	
CC(/C=C1\SC(=O)N(CCCC(=O)O)C1=O)=C\c1ccccc1	inconclusive [inhibitor, partial curve]	
COc1ccc(NC(=O)NCc2ccccn2)cc1		inactive: 16.1%
Nc1cc2c(cc1O)CCCC2	inconclusive [inhibitor, partial curve, poor fit]	
COc1ccc(Cl)cc1NC(=O)CN1CCC(NC(=O)C2CC2)CC1	inconclusive [inhibitor, partial curve]	
Cc1cc(C)c(S(=O)(=O)n2cc(C(C)C(N)C(=O)O)c3ccccc32)c(C)c1 (stereo not given)	inconclusive [inhibitor, single point]	
Cc1onc(-c2ccccc2)c1C(=O)N1CCN(CCc2ccccc2)CC1	inconclusive [inhibitor, partial curve, poor fit]	
COc1ccc(-n2nc(N)c3c(=O)oc(N(C)C)nc32)cc1		inactive: 47%
Cc1cc(C)nc(SCc2ccc(C(=O)N/N=C/c3ccccn3)cc2)n1	inconclusive [inhibitor, partial curve]	
COC(=O)c1ccc(C(=S)NCC2(N(C)C)CCCCC2)cc1	inconclusive [inhibitor, single point]	
S=c1[nH]nc(-c2ccncc2)n1/N=C/C(Cl)=C\c1ccccc1	inconclusive [inhibitor, single point]	
O=P(NCc1ccccc1)(Oc1ccccc1)Oc1ccccc1	inconclusive [inhibitor, single point]	
CC(C)(C)c1ccc(-c2nc(N)nc(N)n2)cc1		inactive: 115%
COc1cccc(C2c3c(-c4ccccc4)n[nH]c3C(=O)N2c2ccc(C(=O)O)cc2)c1 (stereo not given)	inconclusive [inhibitor, single point]	
COc1ccccc1NC(=O)CN1CCN(c2ccccc2F)CC1	inconclusive [inhibitor, partial curve]	
